{"source": "PubChem BioAssay (NCATS)", "key": {"[1]": {"molecular_target": "3',5'-cyclic-AMP phosphodiesterase 4B (Homo sapiens) (UniProt Q07343)", "sequence (Q07343 whole entry, looked up)": "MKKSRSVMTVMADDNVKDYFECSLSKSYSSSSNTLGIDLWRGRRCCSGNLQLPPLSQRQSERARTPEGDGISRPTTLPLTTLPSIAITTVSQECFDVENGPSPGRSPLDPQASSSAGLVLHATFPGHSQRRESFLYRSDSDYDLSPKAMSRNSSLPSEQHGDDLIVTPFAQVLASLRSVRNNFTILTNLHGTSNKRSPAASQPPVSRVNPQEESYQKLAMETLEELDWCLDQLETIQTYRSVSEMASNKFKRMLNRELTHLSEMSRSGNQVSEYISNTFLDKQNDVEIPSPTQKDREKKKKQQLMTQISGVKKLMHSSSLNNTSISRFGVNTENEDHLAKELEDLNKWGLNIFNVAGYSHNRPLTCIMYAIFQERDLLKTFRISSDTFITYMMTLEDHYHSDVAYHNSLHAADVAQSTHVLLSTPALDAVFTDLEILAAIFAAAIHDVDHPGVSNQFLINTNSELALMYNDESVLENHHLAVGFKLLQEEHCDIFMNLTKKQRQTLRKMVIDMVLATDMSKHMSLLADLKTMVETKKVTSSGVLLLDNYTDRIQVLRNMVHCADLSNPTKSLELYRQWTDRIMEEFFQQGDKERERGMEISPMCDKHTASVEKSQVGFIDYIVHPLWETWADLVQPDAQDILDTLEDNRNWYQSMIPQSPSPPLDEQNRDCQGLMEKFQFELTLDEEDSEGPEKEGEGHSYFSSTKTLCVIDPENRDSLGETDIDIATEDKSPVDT", "assay": "qHTS Assay for Inhibitors of PDE-IV (AID 607; active = well fitted activation curve with a large enough effect in the main read-out, with a control signal flat, not every such curve was filed as active; inconclusive = small, poorly fitted or top-dose-only effect, or effect the other way, or a change in a side signal; note: potency is the fitted concentration of half-maximal effect)", "conditions": "HEK293 ACTOne CNG channel cells, membrane potential fluorescence; activation (PDE inhibition): at 22.9 µM (top of the series)", "procedure,_shortened": "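ACTOne HEK293 cells carry a modified cAMP-gated CNG channel and express endogenous PDE4; plated 1000 cells/well, compounds up to 22.9 uM final. Membrane-potential dye fluorescence (ex 535/em 590) was read; parental cells received 10 uM forskolin + 100 uM RO 20-1724.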"}, "[2]": {"assay": "qHTS Assay for Identification of Small Molecule Antagonists for NFkB Signaling Pathway (AID 895; active = well fitted inhibition curve with a large enough effect in the signal ratio, with a control signal flat, not every such curve was filed as active; inconclusive = small, poorly fitted or top-dose-only effect, or effect the other way, or a change in a side signal; the % refers to the signal ratio; note: % is set by controls: 0 for no effect and ±100 for the full control effect)", "conditions": "NFkB beta-lactamase reporter cells, FRET ratio 460/530, stimulated with 10 pM TNF alpha; activity change, negative = inhibition: at 38.3 µM (top of the series)", "procedure,_shortened": "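NFkB-bla ME-180 cervical carcinoma cells with beta-lactamase reporter under NFkB response element; compounds added, then TNF alpha at 10 pM final (EC50), 5 h at 37 C. LiveBLAzer substrate 2 h, room temperature; emission 460/530 nm at 405 nm excitation.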"}, "[3]": {"molecular_target": "RecQ-like DNA helicase BLM (Homo sapiens) (UniProt P54132)", "sequence (P54132 whole entry, looked up)": "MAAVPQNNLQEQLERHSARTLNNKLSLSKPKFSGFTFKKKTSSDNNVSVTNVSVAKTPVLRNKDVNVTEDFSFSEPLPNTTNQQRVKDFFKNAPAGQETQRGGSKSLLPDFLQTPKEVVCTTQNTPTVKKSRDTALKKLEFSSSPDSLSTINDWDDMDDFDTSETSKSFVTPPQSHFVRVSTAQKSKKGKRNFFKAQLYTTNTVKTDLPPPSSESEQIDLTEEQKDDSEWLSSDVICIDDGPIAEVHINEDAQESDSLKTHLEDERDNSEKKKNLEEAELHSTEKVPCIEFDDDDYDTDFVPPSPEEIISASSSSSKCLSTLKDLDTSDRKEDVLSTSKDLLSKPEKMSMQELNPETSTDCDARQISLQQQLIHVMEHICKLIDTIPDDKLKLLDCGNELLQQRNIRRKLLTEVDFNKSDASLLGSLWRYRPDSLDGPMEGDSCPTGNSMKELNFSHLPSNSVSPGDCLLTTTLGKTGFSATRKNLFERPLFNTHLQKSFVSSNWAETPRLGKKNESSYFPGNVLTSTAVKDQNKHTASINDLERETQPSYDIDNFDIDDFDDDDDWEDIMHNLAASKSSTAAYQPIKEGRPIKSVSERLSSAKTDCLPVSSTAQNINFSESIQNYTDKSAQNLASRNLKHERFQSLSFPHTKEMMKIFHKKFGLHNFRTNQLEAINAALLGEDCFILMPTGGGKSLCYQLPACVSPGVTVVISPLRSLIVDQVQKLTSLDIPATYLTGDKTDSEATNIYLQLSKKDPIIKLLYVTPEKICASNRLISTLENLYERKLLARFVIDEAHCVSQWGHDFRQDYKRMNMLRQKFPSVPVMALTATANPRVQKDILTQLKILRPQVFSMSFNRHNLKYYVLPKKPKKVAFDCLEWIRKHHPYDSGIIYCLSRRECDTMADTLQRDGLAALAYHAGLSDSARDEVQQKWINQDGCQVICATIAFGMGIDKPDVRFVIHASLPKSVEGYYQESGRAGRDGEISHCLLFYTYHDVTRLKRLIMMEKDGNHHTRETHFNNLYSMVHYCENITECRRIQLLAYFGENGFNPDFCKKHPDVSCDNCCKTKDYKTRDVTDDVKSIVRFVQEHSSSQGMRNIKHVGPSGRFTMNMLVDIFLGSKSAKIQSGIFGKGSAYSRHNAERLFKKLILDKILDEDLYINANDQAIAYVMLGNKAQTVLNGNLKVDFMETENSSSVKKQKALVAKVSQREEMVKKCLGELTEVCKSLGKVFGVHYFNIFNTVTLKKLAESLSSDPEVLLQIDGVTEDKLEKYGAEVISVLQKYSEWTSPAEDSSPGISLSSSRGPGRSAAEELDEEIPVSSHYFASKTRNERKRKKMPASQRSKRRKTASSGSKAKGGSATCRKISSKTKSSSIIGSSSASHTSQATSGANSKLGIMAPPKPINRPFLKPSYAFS", "assay": "qHTS Validation Assay for Inhibitors of Bloom's syndrome helicase (BLM) (AID 2364); note: potency is the fitted concentration of half-maximal effect;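 for activity change, negative = inhibition: plate controls were DMSO vehicle for no effect and enzyme-free control for full effect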", "procedure,_shortened": "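BLM 50 nM in 25 mM Tris-HCl pH 8.0, 5 mM NaCl, 2 mM MgCl2, 1 mM DTT, 0.01% Tween-20, 2.5 ug/ml poly(dI-dC); 15 min cpd preinc, RT. Start: 200 nM forked DNA + 2 mM ATP (final). TAMRA read, 2 reads 2 h apart.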"}, "[4]": {"molecular_target": "ATP-dependent 6-phosphofructokinase (Trypanosoma brucei brucei) (UniProt O15648)", "sequence (O15648 whole entry, looked up)": "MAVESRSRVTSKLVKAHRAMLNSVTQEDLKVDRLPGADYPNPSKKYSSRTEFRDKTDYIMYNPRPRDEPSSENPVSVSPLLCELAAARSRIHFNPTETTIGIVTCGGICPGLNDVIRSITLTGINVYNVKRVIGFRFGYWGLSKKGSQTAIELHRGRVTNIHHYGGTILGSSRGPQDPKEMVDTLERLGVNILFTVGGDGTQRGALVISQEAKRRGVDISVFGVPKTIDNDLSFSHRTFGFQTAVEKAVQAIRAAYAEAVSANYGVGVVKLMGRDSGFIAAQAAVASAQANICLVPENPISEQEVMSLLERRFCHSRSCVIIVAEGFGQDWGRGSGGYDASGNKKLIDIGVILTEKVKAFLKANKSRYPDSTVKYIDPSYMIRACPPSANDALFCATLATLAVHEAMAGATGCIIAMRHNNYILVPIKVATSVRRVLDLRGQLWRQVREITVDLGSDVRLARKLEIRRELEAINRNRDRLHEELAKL", "assay": "qHTS Validation Assay to Find Inhibitors of T. brucei phosphofructokinase (AID 485368); note: potency is the fitted concentration of half-maximal effect", "procedure,_shortened": "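Inhibition derived from concentration-response curves of luminescence, ranked by r2, response size and curve class; the underlying reaction used 1.25 nM PFK, 0.1 mM ATP and 0.5 mM F6P, 45 min, room temperature.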"}, "[5]": {"assay": "Primary qHTS for small molecule stabilizers of the endoplasmic reticulum resident proteome: Secreted ER Calcium Modulated Protein (SERCaMP) assay (AID 1508630); note: % is set by controls: 0 for no effect and ±100 for the full control effect", "conditions": "SH-SY5Y GLuc-SERCaMP (Gaussia luciferase released on ER calcium loss) secretion, thapsigargin, luminescence; activity change, negative = inhibition: at 38.4 µM (top of the series) unless noted", "procedure,_shortened": "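The SH-SY5Y reporter protocol was run at 3 concentrations up to 38.3 uM (primary) or 11 concentrations (follow-up): 16 h compound, 100 nM thapsigargin for 4 h, then extracellular luciferase luminescence.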"}, "[6]": {"molecular_target": "Ubiquitin carboxyl-terminal hydrolase 1 (Homo sapiens) (UniProt O94782)", "sequence (O94782 whole entry, looked up)": "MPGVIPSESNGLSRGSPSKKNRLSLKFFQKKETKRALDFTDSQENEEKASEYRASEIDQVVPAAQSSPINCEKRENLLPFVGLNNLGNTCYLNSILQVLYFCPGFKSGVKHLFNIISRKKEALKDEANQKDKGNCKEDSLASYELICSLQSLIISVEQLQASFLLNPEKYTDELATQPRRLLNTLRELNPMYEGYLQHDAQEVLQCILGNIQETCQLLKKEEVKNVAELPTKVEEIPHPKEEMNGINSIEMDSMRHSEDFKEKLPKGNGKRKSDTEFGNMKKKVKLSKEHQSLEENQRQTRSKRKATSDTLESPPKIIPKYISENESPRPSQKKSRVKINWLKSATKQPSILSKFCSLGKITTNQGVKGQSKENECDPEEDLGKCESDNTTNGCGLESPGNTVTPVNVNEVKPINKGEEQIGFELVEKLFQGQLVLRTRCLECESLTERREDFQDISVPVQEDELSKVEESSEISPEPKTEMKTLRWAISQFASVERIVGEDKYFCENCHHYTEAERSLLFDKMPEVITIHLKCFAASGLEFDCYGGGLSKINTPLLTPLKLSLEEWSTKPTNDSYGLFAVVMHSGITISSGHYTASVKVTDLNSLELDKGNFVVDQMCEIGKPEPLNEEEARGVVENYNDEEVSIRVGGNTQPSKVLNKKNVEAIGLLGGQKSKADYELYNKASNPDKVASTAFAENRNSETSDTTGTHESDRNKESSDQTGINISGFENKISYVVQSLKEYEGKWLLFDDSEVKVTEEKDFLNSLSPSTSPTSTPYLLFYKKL", "assay": "Inhibitors of USP1/UAF1: Pilot qHTS (AID 504865);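 note: rhodamine fluorescence freed from ubiquitin-rhodamine substrate followed over time; potency is the fitted concentration of half-maximal effect; nearly all actives have a fitted effect of over 35% in size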", "procedure,_shortened": "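Enzyme-free wells gave the negative control, while test wells held 1nM USP1/UAF1 preincubated with compound for 15 min at room temperature. Ub-Rho at 150nM final started the reaction, and fluorescence at 480/540 nm was recorded kinetically.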"}, "Furin (Homo sapiens)": {"molecular_target": "Furin (Homo sapiens) (UniProt P09958)", "sequence (P09958 whole entry, looked up)": "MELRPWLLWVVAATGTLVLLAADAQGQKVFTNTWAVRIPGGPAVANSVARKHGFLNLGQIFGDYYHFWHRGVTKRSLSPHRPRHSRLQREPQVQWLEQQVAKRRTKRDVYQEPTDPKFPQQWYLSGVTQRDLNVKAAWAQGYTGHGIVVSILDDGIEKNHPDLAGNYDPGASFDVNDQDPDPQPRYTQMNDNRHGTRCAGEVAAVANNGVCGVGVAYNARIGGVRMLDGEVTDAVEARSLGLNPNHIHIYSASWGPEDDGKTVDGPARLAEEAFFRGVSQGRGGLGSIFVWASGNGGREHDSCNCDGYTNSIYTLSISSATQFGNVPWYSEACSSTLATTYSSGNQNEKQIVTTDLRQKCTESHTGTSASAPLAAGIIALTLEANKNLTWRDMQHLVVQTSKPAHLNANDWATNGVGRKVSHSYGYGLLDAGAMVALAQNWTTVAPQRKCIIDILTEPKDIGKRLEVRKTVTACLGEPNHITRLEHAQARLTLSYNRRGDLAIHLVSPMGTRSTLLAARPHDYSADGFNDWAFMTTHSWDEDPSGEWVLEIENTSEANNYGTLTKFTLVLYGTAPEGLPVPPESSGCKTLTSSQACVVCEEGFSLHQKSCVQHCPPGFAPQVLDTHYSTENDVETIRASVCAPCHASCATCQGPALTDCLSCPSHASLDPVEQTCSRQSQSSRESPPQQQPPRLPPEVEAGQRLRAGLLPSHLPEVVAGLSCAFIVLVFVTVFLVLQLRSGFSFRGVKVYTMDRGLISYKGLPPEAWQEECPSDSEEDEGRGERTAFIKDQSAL", "assay": "Furin counterscreen qHTS for Zika virus inhibitors (AID 1347149); note: nearly all actives have a fitted effect of over 70% in size; note: potency is the fitted concentration of half-maximal effect; for activity change, negative = inhibition: top concentration of the series differs between compounds", "conditions": "furin enzymatic counterscreen, fluorogenic substrate; activity change, negative = inhibition: at 114 µM (top of the series)", "procedure,_shortened": "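Counterscreen measures cleavage of 2 microM BOC-RVRR-AMC, below its ~15 microM Km, by 5 nM full-length human furin at pH 7.0 after a 15-min compound preincubation. Inhibition derives from the 15-min fluorescence increase at 37C.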"}, "[7]": {"tested_on": "Zika virus NS2B-NS3 protease (linked construct)", "assay": "Confirmatory screen NINDS AMC qHTS for Zika virus inhibitors (AID 1347152); note: potency is the fitted concentration of half-maximal effect; nearly all actives have a fitted effect of over 70% in size", "procedure,_shortened": "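Concentration-response confirmation used the NINDS linked protease (NS2B hydrophilic domain joined to NS3 protease domain), 1 nM, with a 15-min compound preincubation. Substrate, Nle-KRR-AMC at 10 microM, was read by UV fluorescence before and after 15 min.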"}, "[8]": {"tested_on": "Zika virus NS2B-NS3 protease", "assay": "Primary screen GU AMC qHTS for Zika virus inhibitors (AID 1347154); note: nearly all actives have a fitted effect of over 70% in size; note: potency is the fitted concentration of half-maximal effect;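 for activity change, negative = inhibition: 0% = no-inhibitor control and -100% = no-enzyme control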", "procedure,_shortened": "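Unlinked Zika NS2B hydrophilic domain/NS3 protease domain noncovalent complex (25 nM final) in 10 mM Tris-HCl pH 8.0, 0.01% Tween 20, with AMC peptide substrate. Fluorescence (ex 340, em 450 nm) change over 15 min, room temperature; percent inhibition fitted to 4-parameter Hill equation.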"}, "[9]": {"assay": "ZIKV-mCherry secondary qHTS for Zika virus inhibitors (AID 1347158); note: potency is the fitted concentration of half-maximal effect; for activity change, negative = inhibition: top concentration of the series differs between compounds", "conditions": "Vero cells, ZIKV-mCherry infection imaging, 48-72 h; activity change, negative = inhibition: at 49.2 µM (top of the series)", "procedure,_shortened": "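Compounds were tested in Vero monkey kidney cells infected with recombinant mCherry-expressing Zika virus at MOI 1 for 48-72 h at 37 °C. Fixed cells were nuclear-stained and imaged, and infection rate was taken as the fraction of mCherry-positive cells.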"}, "[10]": {"assay": "Tertiary RLuc qRT-PCR qHTS assay for Zika virus inhibitors (AID 1347169); note: potency is the fitted concentration of half-maximal effect; nearly all actives have a fitted effect of over 55% in size", "procedure,_shortened": "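Inhibition of ZIKV-RLuc replication in Vero cells, read as Renilla luminescence 1-1.5 hrs after live-cell substrate addition, following 48-72 hrs infection at MOI 1-2 in presence of compound.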"}, "[11]": {"tested_on": "Zika virus NS2B-NS3 protease (unlinked)", "assay": "Optimization of GU AMC qHTS for Zika virus inhibitors: Unlinked NS2B-NS3 protease assay (AID 1347151); note: nearly all actives have a fitted effect of over 80% in size; note: potency is the fitted concentration of half-maximal effect;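 for activity change, negative = inhibition: 0% = no-inhibitor control and -100% = no-enzyme control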", "conditions": "recombinant ZIKV NS2B-NS3 protease, fluorogenic AMC substrate; activity change, negative = inhibition: at 52.5 µM (top of the series) unless noted", "procedure,_shortened": "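In this qHTS, compounds acted on 25 nM unlinked Zika NS2B–NS3 in pH 8.0 Tris/Tween buffer. Cleavage of an AMC peptide ran 15 min at room temperature, to about 20% conversion.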"}}, "note": "This list was built around the results that the source calls inconclusive (neither active nor inactive); the mix of calls is not that of the screen. For some assays here: Where the call is inconclusive, the potency comes from a doubtful curve fit. Active and inactive are the calls of the source. Unless noted, calls come from the whole dose curve; as a rule, active = well fitted curve in the direction sought with a large enough effect; inconclusive = small, poorly fitted or top-dose-only effect, or another doubt; inactive = no such curve, though single readings can be large; an effect the other way counts as inactive or inconclusive. Tags give direction and shape of the fitted curve."}
{"molecule": "O=C(O)C1=CCCNC1", "values": [{"measurement": "Potency", "setting": "[1]", "value": "inconclusive: 19 µM [inhibitor, single point]"}, {"measurement": "Potency", "setting": "[2]", "value": "inactive"}, {"measurement": "Potency", "setting": "[3]", "value": "inconclusive: 0.0501 µM [inhibitor, full curve, poor fit]"}, {"measurement": "Potency", "setting": "[4]", "value": "inconclusive: 37.9 µM [activator, partial curve]"}, {"measurement": "Potency", "setting": "[5]", "value": "inactive"}]}
{"molecule": "CC(C)=CCCC1(C)C=Cc2c(O)c3c(c(CC=C(C)C)c2O1)OC12C(=CCCC1C(C)(C)O[C@@]2(C/C=C(\\C)C(=O)O)C(=O)O)C3=O", "note": "(stereo partly drawn)", "values": [{"measurement": "Potency", "setting": "[6]", "value": "active: 79.4 µM"}, {"measurement": "Potency", "setting": "Furin (Homo sapiens)", "value": "inconclusive: 9.61 µM [inhibitor, full curve]"}, {"measurement": "Potency", "setting": "[7]", "value": "inconclusive: 19.2 µM [inhibitor, partial curve]"}, {"measurement": "Potency", "setting": "[8]", "value": "inconclusive: 5.32 µM [inhibitor, full curve, poor fit]"}, {"measurement": "Potency", "setting": "[9]", "value": "inconclusive: 3.98 µM [inhibitor, full curve]"}, {"measurement": "Potency", "setting": "[10]", "value": "inconclusive: 29.4 µM [inhibitor, single point]"}]}
{"molecule": "COc1ccccc1N1CCN(CCCNc2c(C)c(=O)n(C)c(=O)n2C)CC1", "values": [{"measurement": "Potency", "setting": "[1]", "value": "inconclusive: 6.31 µM [inhibitor, partial curve, poor fit]"}, {"measurement": "Potency", "setting": "[2]", "value": "inactive"}, {"measurement": "Potency", "setting": "[3]", "value": "inactive"}, {"measurement": "Potency", "setting": "[4]", "value": "inconclusive: 3.79 µM [falling, single point]"}, {"measurement": "Potency", "setting": "Furin (Homo sapiens)", "value": "inactive"}, {"measurement": "Potency", "setting": "[11]", "value": "inconclusive: 29.9 µM [inhibitor, single point]"}, {"measurement": "Potency", "setting": "[8]", "value": "inactive"}]}
{"molecule": "O=C1c2c(O)ccc([N+](=O)[O-])c2C(=O)c2c([N+](=O)[O-])ccc(O)c21", "values": [{"measurement": "Potency", "setting": "Furin (Homo sapiens)", "value": "inconclusive: 55.5 µM [inhibitor, single point]"}, {"measurement": "Potency", "setting": "[11]", "value": "inconclusive: 17.5 µM [inhibitor, full curve]"}, {"measurement": "activity change, negative = inhibition", "setting": "[11]", "value": "inconclusive: -22.5% [inhibitor] [at 114 µM]"}, {"measurement": "Potency", "setting": "[9]", "value": "inactive"}, {"measurement": "Potency", "setting": "[10]", "value": "active: 13.5 µM"}]}
